# Laboratory results as given in publication PMC4336329 (PLoS ONE, 2015).
# Out of some 310,000 compounds screened, about 2,200 (0.71%) showed an effect of 50% or more. The effect is printed as a negative number. Some of the results follow.
# Target: human ether-à-go-go-related gene (hERG) potassium channel (human, UniProt Q12809)
# Experiment: primary screen, population patch clamp on CHO cells stably expressing hERG
# Sequence of human ether-à-go-go-related gene (hERG) potassium channel (Q12809 whole entry, looked up): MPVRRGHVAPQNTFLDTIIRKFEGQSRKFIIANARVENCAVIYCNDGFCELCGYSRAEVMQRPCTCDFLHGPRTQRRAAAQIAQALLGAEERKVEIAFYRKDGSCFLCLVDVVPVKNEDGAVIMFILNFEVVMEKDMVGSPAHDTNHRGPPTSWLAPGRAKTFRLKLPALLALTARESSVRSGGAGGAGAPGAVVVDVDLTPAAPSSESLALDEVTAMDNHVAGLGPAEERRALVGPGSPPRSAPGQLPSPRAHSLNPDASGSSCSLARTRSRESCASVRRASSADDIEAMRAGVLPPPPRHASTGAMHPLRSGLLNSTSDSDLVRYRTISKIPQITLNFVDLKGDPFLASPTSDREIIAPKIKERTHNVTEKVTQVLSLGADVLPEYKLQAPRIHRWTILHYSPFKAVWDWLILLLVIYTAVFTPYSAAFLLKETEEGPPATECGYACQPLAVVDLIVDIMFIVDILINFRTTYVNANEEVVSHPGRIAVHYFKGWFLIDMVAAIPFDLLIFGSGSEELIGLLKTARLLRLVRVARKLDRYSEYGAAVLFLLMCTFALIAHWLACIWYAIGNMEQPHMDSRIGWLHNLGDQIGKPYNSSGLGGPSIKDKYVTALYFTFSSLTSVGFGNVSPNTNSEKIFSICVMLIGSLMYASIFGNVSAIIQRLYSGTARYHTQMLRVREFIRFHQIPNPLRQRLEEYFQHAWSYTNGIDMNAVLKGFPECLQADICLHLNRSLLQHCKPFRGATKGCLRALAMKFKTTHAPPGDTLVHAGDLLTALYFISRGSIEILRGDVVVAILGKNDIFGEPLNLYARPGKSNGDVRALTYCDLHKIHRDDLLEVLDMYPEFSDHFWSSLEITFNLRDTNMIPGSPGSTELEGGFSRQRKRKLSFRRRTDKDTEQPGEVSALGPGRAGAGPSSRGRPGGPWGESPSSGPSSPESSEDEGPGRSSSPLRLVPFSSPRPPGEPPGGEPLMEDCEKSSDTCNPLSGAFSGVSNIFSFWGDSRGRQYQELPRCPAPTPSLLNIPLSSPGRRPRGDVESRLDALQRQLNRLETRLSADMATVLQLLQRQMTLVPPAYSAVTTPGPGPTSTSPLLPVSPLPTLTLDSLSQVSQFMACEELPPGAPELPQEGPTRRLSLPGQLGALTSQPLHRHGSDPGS
row,SMILES,"hERG current change (%, negative = inhibition) at 1uM"
1,Cc1ccc(S(=O)(=O)CCC(=O)OCC(=O)N2CCN(S(=O)(=O)c3ccccc3)CC2)cc1,9.95%
2,Cc1noc2ncnc(Sc3ccc(Cl)cc3)c12,14.4%
3,O=C(COc1ccc(Cl)cc1)NNC(=O)CSc1nncs1,13.1%
4,COc1ccccc1CC(=O)NN1C(=O)c2ccccc2C1=O,14.6%
5,O=C(N/N=C/c1cccc(O)c1)c1ccc(COc2cccc3cccnc23)cc1,14.1%
6,Cc1ccc(CN(Cc2ccco2)C(=S)NCC(=O)O)cc1,6.44%
7,Cc1cc(NC(=O)CSc2nnc3c(C)cc4c(C)ccc(C)c4n23)no1,1.95%
8,COc1cc(C2NC(=O)NC(c3ccccc3)=C2C(C)=O)ccc1OCC#N (stereo not drawn),4.82%
9,CCN(CC)c1ccc(/C=N/NC(=O)c2nnn(-c3nonc3N)c2-c2ccc(C)cc2)cc1,11.7%
10,O=C(O)CC1C(=O)NCCN1Cc1ccc(F)c(F)c1 (stereo not drawn),12.3%
11,Cc1cccc(NC(=O)CSc2ncnc3c2oc2ccccc23)c1,8.31%
12,Cc1ccc(Cc2nnc(SCC(=O)Nc3ccccc3)[nH]c2=O)cc1,10.2%
13,CCOc1cccc(N2CCN(CCNC(=O)Nc3ccc(C)cc3)CC2)c1C,-8.62%
14,CC(C)C(NC(=O)OCc1ccccc1)C(=O)OCC(=O)NC1CC1 (stereo not drawn),11.3%
15,Cn1c(C(=O)NCCCN2CCN(c3ccccc3F)CC2)cc2c(=O)n(C)c3ccccc3c21,7.26%
16,CCNC(=O)CN(c1ccccc1)S(=O)(=O)c1ccc(Cl)cc1,10.7%
17,O=C(C1COc2ccccc2O1)N1CCN(c2ccccc2)CC1 (stereo not drawn),-2.6%
18,C[n+]1cccc(C(=O)[O-])c1,12.8%
19,Cc1noc(C)c1CSc1nc2ccccc2c(=O)n1-c1ccc(Cl)cc1,-1.1%
20,Cc1ccc(C(=O)Nc2ccccc2)cc1S(=O)(=O)N1CCN(C)CC1,12.2%
21,COc1ccc(N(CC(=O)Nc2cc(C)ccc2C)S(=O)(=O)c2c(C)noc2C)cc1,12.4%
22,Cn1ccnc1SCC(=O)Nc1nc2ccccc2s1,-11.8%
23,CCOC(=O)c1cnc(COc2ccccc2Cl)[nH]c1=O,12.3%
24,O=c1c2ccccc2c(C=Nc2ccc(S(=O)(=O)Nc3ncccn3)cc2)c(O)n1-c1cccc(Cl)c1,14.3%
